Experimental data published in the supplement of paper PMC8285479.
Structures can show the parent of a compound that is named as a salt. ± gives the standard deviation of the averaged measurements. Whole data set: some 1,900 compounds, median “normalised cell viability (NPI; 0 = phenylarsine oxide control, 1 = DMSO control)” near 1, cut for the lowest 2% near 0.039. The list shows a part of the results.

Tested on: NCI-H1944
Assay: normalised cell viability (NPI; 0 = phenylarsine oxide control, 1 = DMSO control) (fraction of DMSO control); NCI-H1944 is a non-small cell lung cancer line; higher = more viable cells (less compound toxicity)
Conditions: 6 days
[1] = glucocorticoid arm: hydrocortisone 2.75 uM co-treatment, compound 1 µM
[2] = glucocorticoid arm: hydrocortisone 2.75 uM co-treatment, compound 5 µM
[3] = glucocorticoid arm: hydrocortisone 2.75 uM pre-treated 2 days and continued, compound 1 µM
[4] = glucocorticoid arm: hydrocortisone 2.75 uM pre-treated 2 days and continued, compound 5 µM
[5] = glucocorticoid arm: vehicle, compound 1 µM
[6] = glucocorticoid arm: vehicle, compound 5 µM
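Also: CTB read-out in 384-well plates, mean of triplicate wells, normalised per plate against 1 µM phenylarsine oxide and 0.1% DMSO, compounds added 24 h after seeding.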

SMILES | normalised cell viability [1] | normalised cell viability [2] | normalised cell viability [3] | normalised cell viability [4] | normalised cell viability [5] | normalised cell viability [6]
N[C@H](C(=O)O)[C@H]1C[C@@H]1C(=O)O [(2S,1'S,2'S)-2-(carboxycyclopropyl)glycine] | 0.99 ± 0.0046 | 0.979 ± 0.019 | 0.994 ± 0.0095 | 0.978 ± 0.015 | 0.9847 ± 0.0055 | 0.9883 ± 0.0097
O=C(O)C1(C(=O)O)CCC1.[NH2-].[NH2-].[Pt+2] [Carboplatin] | – | – | 1.02 | – | 1 | –
COC(=O)C(N)Cc1ccc(Cl)cc1 (racemic) [DL-p-Chlorophenylalanine methyl ester hydrochloride] | 1.02 ± 0.01 | 1.02 ± 0.015 | 1.017 ± 0.0058 | 1.02 ± 0.014 | 1.006 ± 0.0069 | 1.017 ± 0.0058
O=C(Nc1ccc([N+](=O)[O-])cc1O)Nc1ccccc1Br | 0.987 ± 0.013 | 0.386 ± 0.027 | 0.985 ± 0.015 | 0.9383 ± 0.0085 | 0.9703 ± 0.006 | 0.0592 ± 0.0097
O=C(c1cncc(Br)c1)N1CCC(N2CCCC2)CC1 | 0.988 ± 0.015 | 1.02 ± 0.01 | 0.99 ± 0.017 | 1.01 ± 0.02 | 0.9927 ± 0.005 | 0.9893 ± 0.0031
O=c1c(O)c(-c2ccc(O)c(O)c2)oc2cc(O)cc(O)c12 [Quercetin (Sophoretin)] | 1.01 ± 0.011 | 1.03 ± 0.025 | 1.01 ± 0.015 | 0.993 ± 0.034 | 0.9973 ± 0.0046 | 1.017 ± 0.0058
O=c1c(O)c(-c2ccc(O)c(O)c2)oc2cc(O)cc(O)c12 [Quercetin] | 0.9767 ± 0.0064 | 1.01 ± 0.016 | 0.976 ± 0.015 | 0.983 ± 0.013 | 0.996 ± 0.0061 | 0.991 ± 0.005
O=c1c(O)c(-c2ccc(O)c(O)c2)oc2cc(O)cc(O)c12 [Quercetin dihydrate] | 0.996 ± 0.0052 | 0.978 ± 0.017 | 0.779 ± 0.4 | 0.999 ± 0.018 | 1.01 | 1.007 ± 0.0058
COc1ccc(NC(=O)c2ccc(-c3ccc(-c4noc(C)n4)cc3C)cc2)cc1N1CCN(C)CC1 | 1.006 ± 0.0063 | 0.000294 ± 0.00029 | 1.02 ± 0.01 | 0.00887 ± 0.01 | 0.9987 ± 0.0023 | 0.000181 ± 0.0015
CCCCNc1ccc(C(=O)OCCN(C)C)cc1 [Tetracaine hydrochloride] | 1.001 ± 0.0081 | 1.03 ± 0.01 | 1.02 ± 0.021 | 1.023 ± 0.0058 | 0.9867 ± 0.0021 | 0.9877 ± 0.0038
CC(C)=CCC/C(C)=C/CC/C(C)=C/CSc1ccccc1C(=O)O [Farnesylthiosalicylic acid] | 0.993 ± 0.018 | 0.996 ± 0.027 | 0.9933 ± 0.0072 | 0.975 ± 0.013 | 1.002 ± 0.0068 | 1.001 ± 0.0078
CCCCCOC(=O)Nc1nc(=O)n([C@@H]2O[C@H](C)[C@@H](O)[C@H]2O)cc1F [Capecitabine] | 1.02 ± 0.01 | 0.871 ± 0.044 | 1 ± 0.015 | 0.919 ± 0.05 | 1.001 ± 0.0076 | 0.61 ± 0.039
COc1ccc2cc(-c3nc(-c4ccc([S+](C)[O-])cc4)[nH]c3-c3ccncc3)ccc2c1 (stereo not drawn) [Tie2 kinase inhibitor] | 1 ± 0.016 | 1.002 ± 0.0072 | 0.992 ± 0.0087 | 1 ± 0.018 | 0.997 ± 0.0017 | 0.9943 ± 0.0098
CCN(CC)CCOc1ccc(C(=C(Cl)c2ccccc2)c2ccccc2)cc1 [Clomifene citrate] | 0.946 ± 0.014 | 0.804 ± 0.044 | 0.966 ± 0.017 | 0.969 ± 0.012 | 0.9957 ± 0.0075 | 0.18 ± 0.023
COc1ncc(-c2ccc3nccc(-c4ccnnc4)c3c2)cc1NS(=O)(=O)c1ccc(F)cc1F | 0.264 ± 0.0058 | 0.231 ± 0.027 | 0.365 ± 0.025 | 0.249 ± 0.02 | 0.0495 ± 0.0081 | 0.0214 ± 0.0013
N=C(N)NCCCCN [Agmatine sulfate] | 1.017 ± 0.0058 | 1 ± 0.025 | 1.003 ± 0.0058 | 1 ± 0.025 | 0.986 ± 0.012 | 0.997 ± 0.011
C=C(C)C(CC=C(C)C)CC12CC(CC=C(C)C)C(C)(C)C(CC=C(C)C)(C(=O)C(=C(O)c3ccc(O)c(O)c3)C1=O)C2=O (stereo not drawn) [Garcinol] | 1 ± 0.012 | 1.01 ± 0.013 | 0.992 ± 0.014 | 0.997 ± 0.027 | 1.007 ± 0.0052 | 1.001 ± 0.01
